{"source": "PubChem BioAssay AID624418", "about": "(National Center for Advancing Translational Sciences (NCATS), 2012)", "note": "Out of some 410,000 compounds screened, about 530 (0.13%) were called active. Inconclusive results, whose numbers are uncertain, are shown with a selection of clear calls. The call rests on the fitted dose curve; in most records, active means well fitted inhibition curve with a large enough effect; inconclusive means small, poorly fitted or top-dose-only effect, or another doubt; inactive means no such curve, though single readings can be large or run the other way. Potencies beside an inconclusive call are fits to weak or partial responses and may not hold up. On the % scale 0 is the no-effect control and ±100 the full control effect; potency means the concentration at half of the fitted maximal effect."}
{"assay": "qHTS of GLP-1 Receptor Inverse Agonists: Cytotox Screen", "details": "HEK293 cAMP-luciferase reporter cells, luminescence, 24 h; activity change, negative = inhibition: at 38.3 µM (top of the series) unless noted", "procedure,_shortened": "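Here, cytotoxicity is scored as loss of luminescence. The MLSMR collection was tested on cells seeded in medium containing 10% Nu serum, with a 24 hr compound exposure preceded by 12 hours of culture.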"}
{"compound": "COc1ccccc1N1CCN(CCCCCCOc2ccc(F)cc2)CC1", "Potency": "inconclusive: 14.1 µM [inhibitor, single point]"}
{"compound": "O=C(NCc1ccccc1)NC(=O)c1ccccc1F", "Potency": "inconclusive: 28.2 µM [inhibitor, single point]"}
{"compound": "COc1ccc(N2CCN(c3ncnc4scc(-c5ccccc5)c34)CC2)cc1", "activity change, negative = inhibition": "inactive: -7.09%"}
{"compound": "CCOc1ccc2[nH]c(=O)c(CN(Cc3ccccc3OC)C(=O)c3ccccc3)cc2c1", "Potency": "inconclusive: 1 µM [inhibitor, full curve, poor fit]"}
{"compound": "Cc1cccc(-n2cnc3cc(C(=O)NCc4ccccc4Cl)ccc32)c1", "Potency": "inconclusive: 28.2 µM [inhibitor, single point]"}
{"compound": "NC(COCc1ccccc1)c1csc(Nc2nncc3ccccc23)n1", "note": "(stereo not drawn)", "Potency": "inconclusive: 25.1 µM [inhibitor, single point]"}
{"compound": "CC(C)N=c1scc(-c2cccs2)n1/N=C/c1ccc(O)c(O)c1O", "Potency": "inconclusive: 12.6 µM [inhibitor, partial curve]"}
{"compound": "NC(=O)C1CCCN(CC(=O)N2CCN(c3ccccc3)CC2)C1", "note": "(stereo not drawn)", "Potency": "inconclusive: 20 µM [inhibitor, single point]"}
{"compound": "CCc1cccc2c1Sc1ccccc1CC2N1CCNCC1", "note": "(stereo not drawn)", "Potency": "inconclusive: 22.4 µM [inhibitor, single point]"}
{"compound": "COc1ccccc1-c1cn[nH]c1-c1ccc(OCc2ccccc2F)cc1O", "Potency": "inconclusive: 28.2 µM [inhibitor, single point]"}
{"compound": "O=C1C2C3C=CC(c4ccccc4)(C2C(=O)N1c1cccc(Cl)c1)C1C(=O)N(c2cccc(Cl)c2)C(=O)C31", "note": "(stereo not drawn)", "Potency": "inconclusive: 14.1 µM [inhibitor, single point]"}
{"compound": "CC(C)C1C(=O)N(Cc2cn(CCC3OCCCO3)nn2)CCS(=O)(=O)N1Cc1ccc(-c2ccc(Cl)c(Cl)c2)cc1", "note": "(stereo not drawn)", "activity change, negative = inhibition": "inactive: -29.9%"}
{"compound": "FC(F)(F)c1cccc(/C=N/NC(=S)NC2CCCCC2)c1", "Potency": "inconclusive: 6.31 µM [inhibitor, partial curve, poor fit]"}
{"compound": "CCCC(=O)OC/C(O)=C(\\C#N)c1nc2ccccc2[nH]1", "Potency": "active: 10 µM"}
{"compound": "O=C1CC(c2ccc(OCCCCCOc3ccc(C4CC(=O)NC4=O)cc3)cc2)C(=O)N1", "note": "(stereo not drawn)", "Potency": "inconclusive: 11.2 µM [inhibitor, single point]"}
{"compound": "O=C(NCCCN=C1NS(=O)(=O)c2ccccc21)c1ccncc1", "activity change, negative = inhibition": "inactive: -1.39%"}
{"compound": "CC(C)n1ncc2c(C(=O)O)cc(C3CC3)nc21", "activity change, negative = inhibition": "inactive: -9.92%"}
{"compound": "CCOC(=O)Cc1csc(NC(=S)NC(=O)c2ccccc2Br)n1", "Potency": "inconclusive: 12.6 µM [inhibitor, partial curve, poor fit]"}
{"compound": "Cc1cc(N2CCN(C)CC2)nc2ccc(NC(=S)NCCC(C)C)cc12", "Potency": "inconclusive: 22.4 µM [inhibitor, single point]"}
{"compound": "O=C(CNC1CCCCCC1)Nc1ccccc1N1CCCCC1", "Potency": "inconclusive: 22.4 µM [inhibitor, single point]"}
{"compound": "Cc1cccc(OCCn2cc(/C=N/NC(=O)c3ccncc3)c3ccccc32)c1", "Potency": "inconclusive: 11.2 µM [inhibitor, partial curve]"}
{"compound": "Cc1ccc(OCCSc2nc3ccccc3n2CC(=O)N2CCOCC2)cc1", "activity change, negative = inhibition": "inactive: 1.41%"}
{"compound": "CN(C)CCNC(=O)c1ccc(-c2cn3c(-c4ccc(Oc5ccccc5)cc4)cnc3cn2)cc1", "Potency": "inconclusive: 14.1 µM [inhibitor, single point]"}
{"compound": "CC(=O)C1=CCC(c2ccccc2Cl)N(S(=O)(=O)c2ccc(C)cc2)C1", "note": "(stereo not drawn)", "Potency": "inconclusive: 11.2 µM [inhibitor, single point]"}
{"compound": "Cn1ncc2c(=S)nc(Cl)[nH]c21", "Potency": "inconclusive: 22.4 µM [inhibitor, single point]"}
{"compound": "COc1cccc2sc(N(CCCN(C)C)C(=O)c3ccc(S(=O)(=O)N4CCc5ccccc5C4)cc3)nc12", "Potency": "inconclusive: 20 µM [inhibitor, single point]"}
{"compound": "COc1ccc(C(O)(CCC(C)C)C(CN2CCOCC2)c2ccccc2)cc1", "note": "(stereo not drawn)", "Potency": "inconclusive: 6.31 µM [inhibitor, partial curve]"}
{"compound": "CCN(CCCNC(=O)c1[nH]c(C)c(C(C)=O)c1C)c1ccccc1", "Potency": "inconclusive: 10 µM [inhibitor, partial curve, poor fit]"}
{"compound": "Clc1ccc(SCCOCCN2CCOCC2)cc1", "activity change, negative = inhibition": "inactive: 1.62%"}
{"compound": "COc1ccc(NC(=O)Cn2nnc(C(=O)NCc3ccccc3)c2N)c(OC)c1", "Potency": "inconclusive: 8.91 µM [inhibitor, partial curve]"}
{"compound": "COc1ccc(-n2c(COc3cccc4ccccc34)nnc2SCC(=O)NCc2ccco2)cc1", "Potency": "inconclusive: 28.2 µM [inhibitor, single point]"}
{"compound": "CN(C)C(=S)NC(=S)Nc1ccc2ccccc2c1", "Potency": "inconclusive: 1.26 µM [inhibitor, full curve, poor fit]"}
{"compound": "O=C(CCl)Nc1ccc(N2CCCCCC2)cc1", "Potency": "inconclusive: 28.2 µM [inhibitor, single point]"}
